Source: ChEMBL document CHEMBL4888484, “Replenishing the malaria drug discovery pipeline: Screening and hit evaluation of the MMV Hit Generation Library 1 (HGL1) against asexual blood stage Plasmodium falciparum ,using a nano luciferase reporter read-out” (2022)
Among all 150,000 compounds or so, about 540 (0.36%) showed an effect of 50% or more. This is one part of the list.

Each compound was assayed on Plasmodium falciparum (assay: Primary screen in NF54 nanoGlo assay, in single point, at 2uM, 72h; a lower Z score goes with more inhibition). Conditions: timepoint 72 hour.
Type: functional, Erythrocyte

SMILES | % Inhibition [%] | Z score
CCC[C@@H]1NC(=O)c2ccc(OC)c(c2)OCCCn2cc(nn2)CNC(=O)[C@@H](Cc2ccccc2)NC1=O | -1 | 0.27
CC(NC(=O)CNC(=O)c1cccs1)C(O)c1ccc(F)cc1 (configuration not stated) | -16 | 1.82
c1cc(-c2ccc(N3CCNCC3)nn2)ccn1 | 5 | -1.03
CC(C)CC(=O)Nc1ccc(N2CCCN(C(=O)NC(C)C)CC2)c(C(=O)N(C)Cc2ccccc2)c1 | -5 | 0.66
COc1cccc(-c2nc3ccc(-c4cc(C)ccc4C)cn3c2CN2CCN(C(=O)C3CCCC3)CC2)c1 | -33 | 2.94
CN(Cc1cnn(C)c1)C(=O)c1cnn(-c2ccc(Cl)cc2Cl)c1C1CC1 | -4 | 0.66
O=C(CN1CCCCC1=O)N[C@H]1CCCN(C2CCCCCC2)C1 | -7 | 1.33
CNc1cc(C(N)=O)c(Cl)cc1Cl | -15 | 1.52
O=C1C[C@@H]2O[C@H](CN(Cc3ccc(F)c(F)c3)C[C@@H]3CN(CCO3)C(=O)[C@@H]3C[C@@H](CN3Cc3ccc4c(c3)OCO4)N1)[C@@H](O)[C@H]2O | -7 | 1.05
CN1Cc2ccccc2C[C@H]1C(=O)N(Cc1ccccn1)C1CCCCC1 | 9 | -1.22
COC1CCCC(CC(=O)NC2CC(=O)N(C)C2)C1 (configuration not stated) | 2 | -0.4
O=C(Nc1ccc2c(c1)COC2=O)c1ccc(Cl)c(Cl)c1 | 5 | -0.59
O=C(Nc1nc(=O)[nH]s1)c1ccccc1 | 1 | -0.18
COc1ccc(S(=O)(=O)NC[C@H]2Cc3ccccc3O2)cc1 | 2 | -0.32
O=C(Nc1cc(C(F)(F)F)cc2nsnc12)c1sc2ccccc2c1Cl | 8 | -1.11
CCN(C(=O)NCCc1ccc(C)nc1)[C@@H](C)CS(C)(=O)=O | -6 | 0.83
O=C(NCC1(O)CCC1)Nc1nccs1 | -3 | 0.29
Cc1cc(C)cc(N(C(=O)[C@H]2CCS(=O)(=O)C2)c2nc(-c3ccc(F)cc3)cs2)c1 | -13 | 1.17
O=C(NCCn1cccn1)N[C@@H](C1CCCC1)C(F)(F)F | -3 | 0.35
CNc1nc(N2CC(c3ccncc3)C2)nc2c1CCC2 | -13 | 1.67
Cc1cccn2cc(COc3ccccc3C(=O)NCC3CCN(CCO)CC3)nc12 | 4 | -0.37

SMILES | % Inhibition [%] | Z score
COC(=O)c1ncn2c1C(=O)N(Cc1cccc(C)c1)[C@](C)(C(=O)NC1CCCCCC1)C2 | -6 | 0.79
O=C(Cn1cnc2ccccc2c1=O)N1CC(c2nc(-c3ccccn3)no2)C1 | -9 | 1.24
O=C([C@@H]1C[C@@H]2OCC[C@@H]2N1C(=O)c1cccc2cnccc12)N1CCCC1 | 5 | -0.77
COc1cccc(N2C(=O)c3cc(-c4ccco4)nn3C[C@@]2(C)C(=O)NCc2ccc(Cl)cc2)c1 | -4 | 0.71
CCCn1ccnc1-c1nccn1-c1cccc(-c2ccnc(C)n2)c1 | -12 | 2.27
C[C@H](NC(=O)c1nn(CCO)c2c1CN(C(=O)c1cn3ccsc3n1)CC2)c1ccccc1 | -20 | 2.59
Cc1nc(CN2CCCN(C(=O)c3scnc3C)CC2)oc1C | -5 | 0.6
Cc1ccccc1S(=O)(=O)Nc1cccc2[nH]ccc12 | 12 | -1.38
CCOc1cc(N2CCOCC2)c(OCC)cc1NC(=O)[C@H]1CC(=O)N(c2ccc(C)cc2)C1 | -7 | 0.68
CC(=O)Nc1cc(Cl)ccc1NC(=O)c1cn[nH]c1 | 3 | -0.47
Cc1ccc2cc1Oc1cccc(c1)CO[C@H]1CCN(C(=O)c3c[nH]c(=O)c(Cl)c3)C[C@H]1NC(=O)CN(C)C2=O | -12 | 1.59
Cc1nn(CC(=O)N(C)Cc2cnn(C)c2C)cc1Br | -17 | 2.13
COc1ccc(-c2ccc(N3CCN(C(=O)CN(CCN(C)C)C(=O)c4ccccc4C)CC3)nn2)cc1OC | -4 | 0.56
Cc1nnc([C@H](C)NC(=O)C2(O)CCCC2)s1 | -4 | 0.61
CC(=O)N[C@@H](C)C1=CCCN(Cc2cccc(F)c2C(F)(F)F)C1 | -16 | 1.55
COc1ccc(CNC(=O)c2ccc(NCc3ccc(OC)cc3)c(S(=O)(=O)N3CCOCC3)c2)cc1 | -10 | 1.62
CCc1ncnc(N2C[C@@H]3CN(C4CCCCC4)C[C@]3(C(=O)O)C2)c1F | -12 | 1.44
CC12C(=O)N(c3ccc(F)cc3)C(=O)C1C2(c1ccccc1)c1ccccc1 (configuration not stated) | -2 | 0.28
Cc1nccn1[C@H]1[C@@H]2OC[C@@H](O2)[C@@H](NCc2ccccc2Cl)[C@@H]1O | 5 | -0.74
Cc1cc(CNC(=O)NCCOc2ccc(F)cc2F)no1 | 0 | -0.04
O=C(Nc1ncc(CCO)s1)[C@@H]1CCCN1C(=O)Cc1cccs1 | 29 | -1.09

SMILES | % Inhibition [%] | Z score
CC[C@H]1CC[C@H](C(=O)N2C[C@H]3CC[C@@H](C2)NC3)CC1 | -3 | 0.68
CN(C)C(=O)N(Cc1cccc(Br)c1)C1CCOCC1 | -1 | 0.08
CN1C[C@@H]2CCC[C@H]1CN(S(=O)(=O)c1cn[nH]c1)C2 | -3 | 0.53
C[C@](O)(CNCc1ccc2cn[nH]c2c1)c1cccc(Cl)c1 | -6 | 0.7
COc1cccc(C(=O)N2CCN(c3ncnc4c3CCC4)CC2)c1 | -7 | 0.78
Cc1ccc(CNC(=O)c2cc3cc(OCc4ccccc4)ccc3n2Cc2ccccc2)o1 | 37 | -0.85
CCCn1c(C)ccc(-c2noc(CCCC(=O)N3CCOCC3)n2)c1=O | 31 | -0.67
O=C(NCCc1ccc(F)cc1)c1cnn2c1OCCC2 | -7 | 1.16
Cc1ccc(N(C)Cc2c(C)nn(CCO)c2C)c(C)c1 | -5 | 0.55
C(=C\c1cc(/C=C/c2ccccc2)n2nnnc2n1)/c1ccccc1 | 33 | -4.3
O=C(OCCn1cncn1)c1cccc(F)c1Cl | -7 | 0.94
O=C(N[C@@H]1C[C@H]1C1CC1)N1CCOC2(CCC2)C1 | 0 | 0.04
Fc1ccc(-c2nc3c(-c4ccc(Cl)cc4)cnn3c3c2CCCCC3)cc1 | 9 | -0.89
Cc1cc(C(=O)Nc2ccc(S(=O)(=O)NCCC(C)C)cc2)c(C)n1-c1nccs1 | -12 | 1.4
CS(=O)(=O)NCCNC(=O)c1ccc(Br)cc1O | -4 | 0.93
N#CCCNc1ccc(Br)cc1 | -1 | 0.12
CC(C)c1cc(C(=O)N[C@@H](C)c2nccs2)on1 | -13 | 2.37
CCc1ccc([C@@H]2CN(C(=O)c3cn[nH]c3)CCO2)cc1 | -1 | 0.14
O=C(Cc1ccc2c(c1)OCC2)NCCN1CCOCC1 | 0 | -0.04
Cc1c(CN2C[C@@H]3CC[C@H]2CN(C2Cc4ccccc4C2)C3)cnn1C | -14 | 1.38
CCn1c(CN[C@](C)(C(=O)OC)C2CC2)nc2cc(S(=O)(=O)N(C)C)ccc21 | 11 | -1.58

SMILES | % Inhibition [%] | Z score
FC1(F)CC[C@H](c2nc(Cc3ccc4cn[nH]c4c3)no2)C1 | 0 | 0.03
COc1ccc(C2CCCN2C(=O)C2CCCN(S(C)(=O)=O)C2)cc1OC (configuration not stated) | -3 | 0.44
CC1CCN(c2ccc(NS(=O)(=O)c3ccc4c(c3)CCCC4)cc2C(=O)O)CC1 | -4 | 0.37
O=C(Cn1cnc2c(c1=O)CN(Cc1ccccc1)CC2)Nc1ccc(F)cc1 | -9 | 1.2
C[C@H](NC(=O)CN(C)c1nc2c(Cl)cccc2s1)c1ccccc1 | -3 | 0.52
CC(C)CCN1C(=O)CC[C@@H]2CN(C(=O)c3cc[nH]n3)CC[C@@H]21 | -13 | 2.22
CCOc1ccc(C2c3[nH]c4ccccc4c3C[C@H]3C(=O)N(C4CCCCCCC4)CC(=O)N23)cc1OC (some centres not stated) | 12 | -1.52
O=C(NCc1ccccc1CN1CCOCC1)c1ccc(OCc2ccccc2)cc1 | -8 | 1.77
CC[C@H](C)N(CC(=O)N(Cc1ccc(F)cc1)Cc1ccc(C)s1)C(=O)C1CCC1 | 19 | -2.35
COc1cccc(CN(Cc2ccc(CC3CCN(C(C)=O)CC3)cc2)C2CC2)n1 | -11 | 2.18
COc1ccsc1S(=O)(=O)NCC#CCO | 2 | -0.42
COc1cc([C@H]2CC(=O)Nc3c2c(=O)[nH]n3C2CCCCCC2)cc(OC)c1O | 9 | -1.61
Cc1nn(Cc2nnc3n2CCCCC3)cc1N | 32 | -3.65
CCCc1ccc(CN2CCCn3nc(CN4CCCOCC4)cc3C2)o1 | -6 | 0.75
Cc1nc(N(C)C)nc(N2CCC[C@@H]2c2csc(C)n2)n1 | 5 | -0.88
COc1ccc(CN=C(N)Nc2ccc(OC)c(F)c2)cc1C | -2 | 0.35
COCC[C@]1(NS(=O)(=O)c2ccccc2)CCN(C2CCCCC2)C1 | -7 | 0.78
Cc1cc(Cl)ccc1OCC(=O)N[C@H](c1ccccc1)C1CC1 | -4 | 0.36
